{"source": "PubChem BioAssay (Tox21)", "note": "“And” between values parts separate entries of the source, which are not always exact repeats. Identical values can stand only once. This list was built around the results that the source calls inconclusive (neither active nor inactive); the mix of calls is not that of the screen. Potencies beside an inconclusive call are fits to weak or partial responses and may not hold up. The source made the active and inactive calls. Calls come from the whole dose curve; as a rule, active = well fitted cell-killing curve with a large enough effect in the repeat runs; inconclusive = weak or mixed curves; inactive = no such curve, though single readings can be large or run the other way. Potency is the fitted concentration of half-maximal effect; tags give direction and shape of the fitted curve.", "data": [{"assay": "qHTS assay for identifying genotoxic compounds that show differential cytotoxicity against isogenic chicken DT40 cell lines with known DNA damage response pathways - Rad54/Ku70 mutant cell line (AID 743015); note: nearly all actives have a fitted effect of over 60% in size", "details": "DT40 Rad54/Ku70 mutant viability, CellTiter-Glo, 40 h; series mostly up to 66.8 µM", "values": [{"smiles": "NS(=O)(=O)c1ccc(C(=O)O)cc1", "Potency": "inactive"}, {"smiles": "CC(C)(C)[C@@H](O)[C@@H](Cc1ccc(Cl)cc1)n1cncn1", "Potency": "inconclusive: 68.1 µM [cytotoxic, single point]"}, {"smiles": "CCCCCCCCCCCCCCCCCCCl", "Potency": "inconclusive: 2.99 µM [cytotoxic, partial curve, poor fit]"}, {"smiles": "CC(N)C(=O)OC(C)(C)Cc1ccc(Cl)cc1", "note": "(stereo not given)", "Potency": "inconclusive: 33.5 µM [cytotoxic, single point]"}, {"smiles": "CCN(CCO)c1cccc(C)c1", "Potency": "inconclusive: 68.6 µM [cytotoxic, partial curve, poor fit]"}, {"smiles": "OCCc1ccccn1", "Potency": "inactive"}, {"smiles": "Nc1ccn([C@H]2CC[C@@H](CO)O2)c(=O)n1", "Potency": "inconclusive: 33.5 µM [cytotoxic, single point] and active: 53.5 µM and active: 24.3 µM"}, {"smiles": "CC1=CC(C)(C)Nc2ccccc21", "Potency": "inactive and inconclusive: 66.8 µM [cytotoxic, single point]"}, {"smiles": "O=S(=O)(O)c1cccc(S(=O)(=O)O)c1", "Potency": "inactive"}, {"smiles": "CC(C)COC(=O)c1ccccc1", "Potency": "inconclusive: 68.6 µM [cytotoxic]"}]}]}
